Test results as given in the supplement of paper PMC3334620.
The full ranking holds about 33,000 sequences; the median of “E-score (-0.5 to 0.5)” is about -0.035, and the highest 2% start at about 0.35. Some of the results follow.

Target: T1, Pdr3 (UniProt P33200)
T1 sequence: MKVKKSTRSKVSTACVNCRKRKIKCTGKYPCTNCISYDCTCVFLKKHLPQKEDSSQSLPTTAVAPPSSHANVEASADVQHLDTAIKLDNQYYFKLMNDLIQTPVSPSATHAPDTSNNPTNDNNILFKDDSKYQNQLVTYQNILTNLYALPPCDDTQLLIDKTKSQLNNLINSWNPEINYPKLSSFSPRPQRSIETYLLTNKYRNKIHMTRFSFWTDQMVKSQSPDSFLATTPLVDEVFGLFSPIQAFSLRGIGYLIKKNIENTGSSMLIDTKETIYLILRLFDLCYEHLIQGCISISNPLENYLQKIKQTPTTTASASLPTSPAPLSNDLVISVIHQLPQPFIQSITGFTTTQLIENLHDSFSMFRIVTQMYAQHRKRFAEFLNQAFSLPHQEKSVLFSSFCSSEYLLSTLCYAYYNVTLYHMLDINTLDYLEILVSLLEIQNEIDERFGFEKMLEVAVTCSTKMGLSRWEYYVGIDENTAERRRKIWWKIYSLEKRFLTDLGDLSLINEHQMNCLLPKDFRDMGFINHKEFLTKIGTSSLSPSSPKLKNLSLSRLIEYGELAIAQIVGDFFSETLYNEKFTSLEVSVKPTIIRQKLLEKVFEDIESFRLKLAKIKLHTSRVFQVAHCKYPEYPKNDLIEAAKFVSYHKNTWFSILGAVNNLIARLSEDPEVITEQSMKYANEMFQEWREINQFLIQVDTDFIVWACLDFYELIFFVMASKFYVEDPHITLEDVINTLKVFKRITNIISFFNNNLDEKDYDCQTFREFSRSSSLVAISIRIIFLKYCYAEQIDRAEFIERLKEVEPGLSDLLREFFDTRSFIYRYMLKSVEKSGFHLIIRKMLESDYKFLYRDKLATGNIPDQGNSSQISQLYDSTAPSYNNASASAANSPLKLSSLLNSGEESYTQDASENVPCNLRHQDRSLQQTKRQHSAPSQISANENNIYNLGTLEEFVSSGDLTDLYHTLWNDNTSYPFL
Assay: PBM E-score (8-mer binding enrichment) (E-score (-0.5 to 0.5)); higher = stronger / more preferred TF binding; most listed sequences are background and not binding sites
Settings: protein concentration: 200 nM; construct: GST-full length
Description: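 Universal 'all 10-mer' protein binding microarrays (Agilent AMADID 015681) probed with GST-tagged S. cerevisiae TFs (full-length or DBD) made by in vitro transcription/translation (PURExpress), about 100-200 nM. Bound TF was detected with fluorescent anti-GST. Each ungapped 8-mer (which stands for itself and its reverse complement) is scored by the PBM enrichment score (E-score), a modified Wilcoxon-Mann-Whitney statistic from -0.5 to +0.5, computed with the Universal PBM Analysis Suite. Scale: above 0.35 generally sequence-specific binding.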

Row | Sequence | PBM E-score
1 | GTCCTATA | -0.111
2 | AGACGAAG | 0.0481
3 | CGACGATA | -0.105
4 | AAATGCAA | -0.233
5 | AACGTGGA | -0.116
6 | ACGCAAAG | -0.209
7 | AAAGTCCT | -0.0618
8 | GTGTCTAA | -0.331
9 | ACGACTTG | -0.242
10 | CTGCTTAC | -0.21
11 | AGCCCACG | -0.0622
12 | ACAACAGC | -0.185
13 | AGTTCTGA | -0.225
14 | CGCGTATC | 0.0575
15 | ATTCCGGG | 0.458
16 | AGGTAATC | -0.0608
17 | AAAGGGCA | -0.113
18 | ATAAGACA | -0.183
19 | CAACTTCA | -0.0591
20 | TGGGAACA | 0.0839
21 | GCACTACC | -0.0798
22 | AGGTAACA | -0.0376
23 | GAATGAAC | 0.0564
24 | GCAATCCC | 0.314
25 | AAGCAGCG | 0.017

Row | Sequence | PBM E-score
26 | ACAGTCGA | -0.293
27 | AAAAGAAA | 0.00526
28 | GAACCCGA | 0.251
29 | CAGAACGC | 0.0429
30 | CCCTCGGC | 0.173
31 | GAGTCTCC | 0.0351
32 | CAAATCTA | -0.149
33 | GCAAACAC | -0.108
34 | CTGTTCTC | -0.0802
35 | CGCGAACC | 0.145
36 | AAGTTTTC | -0.0868
37 | CGACAAAG | 0.0309
38 | ATTCCTGC | 0.221
39 | TACCCAAA | -0.132
40 | CCGCAAAC | 0.159
41 | GCACGCGA | 0.117
42 | CTAAGTCC | -0.193
43 | GGGGTGAC | -0.0259
44 | CTGAGTTC | 0.0504
45 | CTCACTCC | 0.12
46 | CATATTTC | 0.106
47 | CCGATTGC | 0.244
48 | CAACAATG | 0.00643
49 | CGTTCCCA | -0.0584
50 | CCCCATAG | -0.0107

Row | Sequence | PBM E-score
51 | GTGGACAC | 0.0518
52 | ATAGTCCA | -0.086
53 | AGCATCAG | -0.128
54 | CCGTCGAA | 0.0963
55 | AAATATTA | 0.189
56 | ACGAGGTA | 0.00408
57 | ATCAATCC | 0.111
58 | ACACTATG | -0.0656
59 | ACTTGTAT | -0.0576
60 | GGGCAACC | -0.0646
61 | AGCTCAAG | -0.171
62 | CTATAGGC | -0.0914
63 | CTTGAAAG | -0.27
64 | CCACCGAG | 0.0244
65 | GCGCGAGC | 0.0964
66 | ACAAATGG | -0.192
67 | CTGTACTA | -0.0992
68 | CTACACGC | -0.294
69 | AAGTTACA | -0.162
70 | TAGTGTGA | -0.114
71 | AGTCGCGA | 0.101
72 | AGCTATCC | 0.0653
73 | AGGTTCAT | -0.0286
74 | CGTAACTC | -0.112
75 | CATACCAC | 0.0126

Row | Sequence | PBM E-score
76 | CCGCGTGC | 0.153
77 | GATTAAAA | 0.057
78 | CACATGGC | -0.0488
79 | AGAAGACC | -0.109
80 | CCCGGGAC | 0.451
81 | TCACAAAA | 0.0917
82 | CTTGTGTC | 0.0194
83 | CCCTGGAA | -0.172
84 | AGCACGGA | 0.311
85 | ACACACCC | 0.0755
86 | TGGATAAA | 0.103
87 | ACGTATCC | -0.0705
88 | CGTTGTCC | 0.126
89 | CCCGAGGC | 0.175
90 | ATGCCAAG | -0.164
91 | CCAACTCG | 0.0294
92 | ACGGGTTA | -0.111
93 | CCTGCCGA | 0.0392
94 | TCCATAGA | -0.0676
95 | GTACACTA | -0.256
96 | CTATGGCC | -0.124
97 | TGGGGACA | -0.0243
98 | GAGTCTCA | -0.175
99 | AGACATTA | -0.107
100 | CAAAGGCG | -0.165

Row | Sequence | PBM E-score
101 | ATTGTGAA | -0.117
102 | GCAAGGTA | -0.15
103 | CAGCCCCA | 0.0418
104 | CCTATGAA | -0.0726
105 | GGATACAA | 0.132
106 | ACCTCACA | -0.0677
107 | CACCGCGG | 0.452
108 | ACCTCGAG | 0.0826
109 | CATTATTA | 0.0664
110 | CCTTAAAC | -0.161
111 | CGGACCGA | 0.352
112 | AGCGGCTC | 0.082
113 | AATCTGGA | -0.0162
114 | GGCCATAA | 0.0789
115 | CCGGATAC | 0.351
116 | AATACATC | 0.182
117 | CGAGAGAG | 0.0773
118 | GGCGGCCC | -0.00494
119 | AACATTCA | 0.0836
120 | GTCGTTGA | -0.129
121 | CCATTAGG | -0.257
122 | CGAACGAG | -0.0975
123 | AATACGAC | -0.173
124 | AGGATCAA | 0.103
125 | ATAATCTG | -0.182

Row | Sequence | PBM E-score
126 | AAATCCCT | -0.22
127 | ACCCCACC | 0.272
128 | CAAGATCA | -0.0417
129 | CGACTCAG | -0.127
130 | ACTTACTA | -0.258
131 | CTTTCTAA | -0.183
132 | ATACCCCA | 0.0496
133 | AGGGGCCC | 0.125
134 | GCACAAGC | 0.00066
135 | CTAATTAG | 0.0718
136 | AGAGCTAC | -0.128
137 | ATTCAGAA | -0.231
138 | CGGCACTC | 0.112
139 | CCGAAGGA | 0.105
140 | CACGATCC | 0.097
141 | GACTTTCA | -0.044
142 | GACAACCC | 0.0502
143 | AGCGGATG | 0.191
144 | ATACACGG | 0.0919
145 | TGATAGCA | -0.0286
146 | CTGTCCGC | 0.235
147 | AAATGATA | 0.0731
148 | ATGTAAAT | -0.122
149 | TCCGTTAA | 0.348
150 | CGGTTCCC | 0.153

Row | Sequence | PBM E-score
151 | CTCCAGAC | -0.0921
152 | GGGACAAA | 0.0643
153 | TAGGTTAA | -0.0553
154 | CAACCGCC | 0.0754
155 | CTTATGTC | 0.0774
156 | CTATAGCC | -0.241
157 | CGGTGCAC | -0.0225
158 | ACTATTCA | -0.0803
159 | AAGCGCTT | 0.21
160 | CCGTATAC | 0.0588
161 | CCGAGACA | 0.185
162 | ATCCGGTG | 0.35
163 | CATGGCCC | 0.102
164 | CCGTGTCC | 0.356
165 | ACGTATCA | -0.068
166 | CCAGGTAA | -0.104
167 | AACTAATA | 0.215
168 | CAGCGCCG | 0.256
169 | CCCCTTCG | -0.203
170 | GCACATAA | -0.2
171 | CCAGGTAC | -0.233
172 | AACCTGCC | -0.146
